Among all 410,000 compounds or so, about 7,200 (1.8%) were called active. The inconclusive results got no clear call from the source; some entries with a clear call stand among them for comparison. Calls come from the whole dose curve; as a rule, active = well fitted activation curve with a large enough effect; inconclusive = small, poorly fitted or top-dose-only effect, or another doubt; inactive = no such curve, though single readings can be large or run the other way. Potencies of inconclusive entries are left out as doubtful fits.
Assay: qHTS of TDP-43 Inhibitors; note: nearly all actives have a fitted effect of over 50% in size; for growth rescue (activation): % of control where 0% means no effect
Settings: TDP-43 expressing yeast growth rescue, BacTiter-Glo, 24 h; growth rescue (activation): at 46.1 µM (top of the series) unless noted
Summary of the method: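 In this qHTS, compounds that restore growth of yeast expressing TDP-43 appear as activators. Cells (OD600=0.02, galactose medium, raffinose-pregrown) are incubated with compound 24 hr at 30 deg C and growth is quantified by BacTiter-Glo.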
Potency is the fitted concentration of half-maximal effect; tags give direction and shape of the fitted curve.

Structure (SMILES)	Potency	growth rescue (activation)
Nc1nc2c(Cl)ccc(Cl)c2s1	inconclusive [activator, partial curve]	–
N#Cc1cn(CCOc2ccccc2F)c2ccccc12	inconclusive [activator, single point]	–
OC1Cc2ccccc2C1Nc1cccc(C(F)(F)F)c1 (stereo not drawn)	active: 12.6 µM	–
Cc1cccc(N2CCN(C(=O)C3CCCN(S(=O)(=O)c4c(C)noc4C)C3)CC2)c1C (stereo not drawn)	inconclusive [activator, single point]	–
O=C(NCc1cccc(Br)c1)c1cc(-c2ccccc2)nn1CC1CC(c2cccc([N+](=O)[O-])c2)=NO1 (stereo not drawn)	inactive	–
CN(C)CCN(Cc1ccco1)S(=O)(=O)c1cc2c(cc1Cl)NC(=O)CO2	inactive	–
CCCCn1c(C23CC4CC(CC(C4)C2)C3)n[nH]c1=S	inconclusive [activator, partial curve]	–
O=[N+]([O-])c1ccccc1CCc1cnc(Cl)s1	inconclusive [activator, single point]	–
Cc1cccc(C(=O)N2CCc3cc(CNC(=O)CCc4ccccc4)ccc32)c1	inactive	–
O=C(Nc1ccc(F)cc1)C(Cc1ccccc1)n1cccc1 (stereo not drawn)	inconclusive [activator, single point]	–
N#CCSc1nc2c(cc1C#N)CCCC2	inconclusive [activator, partial curve, poor fit]	–
COC(=O)C(C)Sc1ncnc2c1nnn2-c1ccc(F)cc1 (stereo not drawn)	inconclusive [activator, single point]	–
CC(C)OCCCN(Cc1ccco1)C(=O)c1cc2c(s1)-c1ccccc1OC2	inconclusive [activator, single point]	–
COCc1cc(C)n(CC(=O)Nc2ccc(NC(C)=O)cc2)c(=O)c1C#N	inactive	–
Cc1csc(NC(=O)c2cc3ccccc3o2)n1	inconclusive [activator, partial curve, poor fit]	–
O=C(Nc1nc(-c2ccccn2)cs1)Nc1ccc(F)cc1F	inconclusive [activator, single point]	–
Cc1cccc(NC(=O)C2CCCN(c3ncnc4c3nc3n4CCCCC3)C2)n1 (stereo not drawn)	inconclusive [activator, partial curve]	–
COc1ccc(OCCNC(=S)Nc2cccc3ccccc23)cc1	inconclusive [activator, single point]	–
Cc1ccc(NCc2cccn2-c2nnc(N3CCC(C(=O)NCc4ccc(OC(C)C)cc4)CC3)s2)cc1	inactive	–
Cc1cccc(C)c1-n1ncc(C(=O)Nc2ccc3c(c2)OCCO3)c1C1CCN(C(=O)OC(C)(C)C)CC1	inconclusive [activator, partial curve, poor fit]	–
CCc1nc2cc(CC(=O)O)ccc2o1	inactive	–
Cc1ccc(C2C=C(c3ccc4c(c3)OCO4)Nc3ncnn32)cc1 (stereo not drawn)	active: 12.6 µM	–
Cc1cccc(NC(=O)CCSc2nnc(Cc3ccccc3)o2)c1	inconclusive [activator, single point]	–

Structure (SMILES)	Potency	growth rescue (activation)
CC(Cc1cccs1)NC(=O)Nc1ccc(Cl)c(Cl)c1 (stereo not drawn)	inconclusive [activator, single point]	–
COc1ccc(NC(=O)c2cnn(-c3ccc(C)cc3)c2-n2cccc2)cc1Cl	inactive	–
O=C(Cn1cc(SCc2ccc(C(F)(F)F)cc2)c2ccccc21)N1CCCCC1	inconclusive [activator, partial curve]	–
COc1cccc(C(=O)NC2CCCc3c2cnn3-c2ccc(C)c(C)c2)c1OC (stereo not drawn)	inconclusive [activator, partial curve]	–
COC(=O)C1C(=O)C(C(=O)/C=C/c2ccccc2)C(=O)CC1(C)C (stereo not drawn)	inconclusive [activator, single point]	–
CC1CN(c2ccc([N+](=O)[O-])cc2F)CCN1C(=O)c1ccco1 (stereo not drawn)	inconclusive [activator, single point]	–
COc1ccc2c(c1)-c1nc(NC(=O)c3ccco3)sc1CC2	inconclusive [activator, single point]	–
O=C(c1csc2c1CCCC2)N1CCN(c2ccc(F)cc2)CC1	inconclusive [activator, single point]	–
COc1cccc(/C=C/C(=O)Nc2cccc(C(C)=O)c2)c1OC	inactive	–
Fc1ccccc1-c1nc(-c2ccc(Br)o2)no1	inconclusive [activator, partial curve]	–
N/C(Cc1ccc([N+](=O)[O-])cc1)=N\OC(=O)CC1CCCCC1	inconclusive [activator, partial curve]	–
c1ccc(Oc2ccc(-c3ccnc4nc(N5CCN(c6ccccc6)CC5)nn34)cc2)cc1	inconclusive [activator, partial curve]	–
CCCCCC(=O)c1ccc(O)cc1O	inconclusive [activator, single point]	–
Fc1ccc(N2CCN(C(=S)NCC3CCCO3)CC2)cc1 (stereo not drawn)	inconclusive [activator, partial curve]	–
O=C(NCCSc1c[nH]c2ccccc12)c1ccc2c(c1)OCO2	inconclusive [activator, partial curve]	–
COc1cc(C[C@H](C)[C@H](C)Cc2ccc3c(c2)OCO3)ccc1O	inconclusive [activator, single point]	–
COc1ccccc1C/C(N)=N/OC(=O)c1ccco1	active: 10 µM	–
CN(NC(=O)c1c(Cl)cccc1Cl)c1cccc(Cl)n1	inconclusive [activator, partial curve]	–
CCOC(=O)c1ccc(NS(=O)(=O)c2cc(C)ccc2OC)cc1	inconclusive [activator, partial curve]	–
Cc1ccc(F)c(S(=O)(=O)NC(=O)C2(C)CCN2C(=O)CCC2CCCC2)c1 (stereo not drawn)	inconclusive [activator, full curve, poor fit]	–
CC1NC(=O)c2cccnc2-n2c1nc1ccccc1c2=O (stereo not drawn)	inconclusive [activator, full curve, poor fit]	–
Cc1nc(SCC(=O)Nc2cccnc2Cl)nc(C)c1C	inconclusive [activator, partial curve]	–
COc1ccc([N+](=O)[O-])cc1NC(=O)C(C)OC(=O)CC1CCCC1 (stereo not drawn)	active: 20 µM	–

Structure (SMILES)	Potency	growth rescue (activation)
COc1cccc(-c2onc3ccc(C(=O)/C=C/N(C)C)cc23)c1	–	inconclusive: -88.7% [activator]
CSc1ccc(CCNc2ncnc3onc(C)c23)cc1	inconclusive [activator, single point]	–
CN(C(=O)c1cc(-c2ccccc2O)on1)c1ccccc1	inactive	–
CCCCOc1c(Cl)cc(C(=O)N(Cc2ccc(C)o2)C2CCS(=O)(=O)C2)cc1Cl (stereo not drawn)	inconclusive [activator, single point]	–
Cc1cc(NS(=O)(=O)c2ccc(NC(=O)COc3ccc(Cl)cc3)cc2)nc(C)n1	inactive	–
COc1cc(C=NOC(=O)Nc2ccccc2)cc(OC)c1OC	inconclusive [activator, single point]	–
COc1ccc(-c2cc(C(=O)N3CCN(c4ncccn4)CC3)c3ccccc3n2)c(OC)c1	–	inconclusive: -83.2% [activator]
CCN(C(=O)COC(=O)C1CCN(S(=O)(=O)c2ccc(C)c(C)c2)CC1)C1CCCCC1	inconclusive [activator, single point]	–
O=C(Cn1c(=O)oc2ccccc21)N1CCN(c2ccc(N3CCOCC3)nn2)CC1	inconclusive [activator, partial curve, poor fit]	–
O=C(Nc1nnc(-c2cccs2)o1)c1cccc(Oc2ccccc2)c1	active: 3.98 µM	–
CC1CCCC(n2c(=S)[nH]c3ccccc3c2=O)C1C (stereo not drawn)	inconclusive [activator, partial curve]	–
COc1cc(C(=O)OC(C)c2ccc(F)cc2)ccc1OCC(=O)N1CCOCC1 (stereo not drawn)	inconclusive [activator, full curve, poor fit]	–
O=[N+]([O-])c1cc([N+](=O)[O-])c(Oc2cc(Cl)ccc2Cl)cc1NC1CCCCCCC1	inconclusive [activator, partial curve]	–
CCOc1ccc2nc(N3CCC(C(=O)NC4CCCCC4)CC3)sc2c1	inconclusive [activator, full curve, poor fit]	–
Cc1ccc(C(=O)CCc2ccc(N)cc2)cc1	inconclusive [activator, partial curve]	–
O=C(Cn1c(=O)oc2ccccc21)NCc1cccc(Cl)c1	inconclusive [activator, partial curve, poor fit]	–
COc1cc(C(F)(F)F)c(C(=O)N(C)Cc2cc(Cl)cc(Cl)c2)cn1	inconclusive [activator, full curve, poor fit]	–
CCCCn1c(SCC(=O)c2ccc(O)c(O)c2)nc2ccsc2c1=O	active: 20 µM	–
Cc1ccc(N2C(S)=C(C#N)C(=O)NC2c2cccs2)cc1 (stereo not drawn)	inconclusive [activator, partial curve]	–
CCc1nc2n[nH]c(N)c2c2c1CSC(C)(C)C2	inactive	–
Cc1ccc(OCc2nc3ccccc3n2C(C(=O)Nc2c(C)cccc2C)C2CC2)cc1 (stereo not drawn)	inactive	–
O=C(c1ccc(N2CCCC2)c([N+](=O)[O-])c1)N1CCc2ccccc2C1	inconclusive [activator, single point]	–

Source: PubChem BioAssay AID652104 (National Center for Advancing Translational Sciences (NCATS), 2013)
